Laboratory results reported in the supplement of paper PMC12217912.
This is one part of the list. The full chains were built here from the parent and the listed change. Inactive controls read about 0.05.

B1: TEV protease; numbered along this chain (parent)
chain: MGESLFKGPRDYNPISSSICHLTNESDGHTTSLYGIGFGPFIITNKHLFRRNNGTLVVQSLHGVFKVKDTTTLQQHLVDGRDMIIIRMPKDFPPFPQKLKFREPQREERICLVTTNFQTKSMSSMVSDTSCTFPSGDGIFWKHWIQTKDGQCGSPLVSTRDGFIVGIHSASNFTNTNNYFTSVPKNFMELLTNQEAQQWVSGWRLNADSVLWGGHKVFMVKPEEPFQPVKEATQL

Variants of: B1
Assay: raw area under fraction-flipped curve 0-4 h after induction (AUC4h, not background-subtracted), DNA-recorder readout of cleavage of the substrate (dimensionless); higher = more cleavage of the substrate by the protease variant
Conditions: temperature: 34 °C; time window: 0-4 h after rhamnose induction
Protocol: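 In vivo DNA recorder in E. coli TOP10(DE3) ΔrhaA at 34 °C. Each TEVp single-site mutant (parent TEVp 0) is paired with a single-site variant of the 7-mer TEVs (canonical ENLYFQ|S). The substrate sits between flexible linkers in a Bxb1-sfGFP-TEVs-SsrA fusion, so cleavage stabilises Bxb1 and speeds flipping of a recombination array, read by NGS. The value is the raw area under the fraction-flipped curve over 0-4 h after rhamnose induction (AUC4h), with ≥20 reads per time point. It is not background-subtracted; inactive controls average about 0.047.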
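Further: Bxb1 expression induced with 0.2% (w/v) L-rhamnose at OD600 near 0.5, cultures sampled hourly, flipped fraction per protease–substrate barcode pair counted by paired-end Illumina sequencing.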

Variant | area with substrate ENAYFQS | area with substrate ENCYFQS | area with substrate ENEYFQS | area with substrate ENGYFQS | area with substrate ENHYFQS | area with substrate ENKYFQS | area with substrate ENMYFQS | area with substrate ENNYFQS | area with substrate ENPYFQS | area with substrate ENRYFQS | area with substrate ENSYFQS | area with substrate ENTYFQS | area with substrate ENVYFQS | area with substrate ENWYFQS | area with substrate ENDYFQS | area with substrate ENFYFQS | area with substrate ENQYFQS | area with substrate ENIYFQS | area with substrate ENYYFQS
F6W | 0.0654 | 0.0618 | 0.107 | 0.0565 | 0.061 | 0.0553 | 0.0808 | 0.0641 | 0.053 | 0.0677 | 0.0716 | 0.0684 | 0.0731 | 0.0484 |  |  |  |  | 
I15T | 0.053 | 0.0655 | 0.0635 | 0.0115 | 0.0597 | 0.0588 |  | 0.0547 | 0.0487 | 0.063 | 0.0575 | 0.0663 | 0.0663 |  | 0.0597 | 0.0661 | 0.0678 |  | 
S26Y | 0.053 |  | 0.068 |  |  | 0.0176 |  |  |  | 0.0425 | 0.0529 | 0.0625 | 0.0444 |  |  |  | 0.0595 | 0.0763 | 
N53F | 0.0592 | 0.0588 | 0.0546 | 0.0583 |  | 0.0502 | 0.0653 | 0.0672 | 0.0594 | 0.062 |  | 0.122 | 0.0636 |  | 0.0554 | 0.0551 | 0.0588 | 0.0763 | 
N53W | 0.0624 | 0.0511 | 0.0658 | 0.0644 | 0.0724 | 0.0599 | 0.0779 | 0.039 | 0.0599 | 0.084 | 0.0606 | 0.0625 | 0.0616 | 0.0592 | 0.0635 | 0.0478 | 0.0866 | 0.0867 | 0.0546
N53Y | 0.0711 | 0.0563 | 0.051 | 0.0509 |  |  | 0.0796 | 0.0621 | 0.06 | 0.0564 | 0.0758 | 0.0587 | 0.0625 | 0.0573 | 0.066 | 0.0558 | 0.0606 | 0.0812 | 
T30P | 0.0542 | 0.0695 | 0.0537 |  | 0.0581 | 0.0867 |  | 0.0687 |  |  | 0.0593 | 0.081 | 0.0617 | 0.0552 | 0.0748 |  |  | 0.106 | 
T30I | 0.0614 | 0.0637 | 0.0497 | 0.056 |  | 0.0546 | 0.0621 | 0.062 | 0.0505 | 0.0669 | 0.0579 | 0.0733 |  |  | 0.0768 | 0.0506 | 0.122 |  | 0.0658
T30E | 0.0503 | 0.0291 | 0.0486 |  | 0.0587 |  | 0.0734 | 0.0646 | 0.0519 |  | 0.0666 | 0.0499 | 0.0835 | 0.0521 | 0.056 | 0.0512 | 0.05 | 0.109 | 
S4Q | 0.0541 | 0.0594 | 0.0572 | 0.0562 | 0.0524 | 0.0579 | 0.0954 | 0.0507 | 0.0605 |  | 0.0693 | 0.0682 | 0.0805 | 0.0646 | 0.08 |  | 0.0614 |  | 0.0411
E25H | 0.0519 | 0.0712 | 0.063 | 0.0548 | 0.0614 |  | 0.0887 |  | 0.0555 |  | 0.051 | 0.055 | 0.0824 |  | 0.06 |  | 0.0689 | 0.101 | 
E25M | 0.0631 | 0.0721 | 0.0556 | 0.0589 | 0.0618 | 0.0555 | 0.0951 |  | 0.0601 | 0.0514 | 0.0641 | 0.0596 | 0.0683 | 0.0455 | 0.0593 | 0.0595 | 0.0582 | 0.115 | 0.093
E25F | 0.0738 | 0.0727 | 0.0626 | 0.0553 |  | 0.0165 |  | 0.0607 | 0.0546 | 0.0615 | 0.0705 | 0.0644 | 0.0498 |  | 0.0599 | 0.104 | 0.061 |  | 
I36K | 0.0423 | 0.0397 |  | 0.0329 |  | 0.0435 |  | 0.042 | 0.0382 |  | 0.0375 |  |  |  | 0.0384 | 0.0408 | 0.0364 | 0.0297 | 
F41H | 0.0615 | 0.0621 | 0.0597 | 0.0587 | 0.0758 |  |  | 0.0584 |  | 0.0496 | 0.0636 | 0.0578 | 0.083 |  | 0.0591 | 0.0569 | 0.0648 | 0.0958 | 
P14L | 0.0708 | 0.0817 | 0.0496 | 0.0589 |  | 0.0695 | 0.0937 | 0.0622 | 0.0587 | 0.0803 | 0.0747 | 0.0577 | 0.0836 | 0.0639 | 0.0667 | 0.0674 | 0.0608 | 0.108 | 0.0649
T55A | 0.05 |  | 0.0679 | 0.0548 | 0.0732 | 0.0525 | 0.0664 | 0.0607 | 0.036 | 0.0549 | 0.064 | 0.064 | 0.0671 |  | 0.0591 |  | 0.0625 | 0.0883 | 
N52A | 0.0428 |  | 0.0555 |  |  |  | 0.0634 |  | 0.0576 | 0.0667 | 0.0631 | 0.0667 | 0.0501 |  |  | 0.0698 | 0.0653 |  | 
N52L | 0.057 |  | 0.0681 | 0.0623 | 0.0606 | 0.0735 | 0.0623 | 0.0523 |  | 0.0399 | 0.0563 | 0.0654 | 0.0616 | 0.0682 | 0.0722 | 0.0849 |  |  | 
R10F | 0.0635 |  | 0.007 | 0.0646 | 0.0585 | 0.0614 | 0.0681 | 0.0733 | 0.0582 | 0.0596 | 0.0675 | 0.0485 | 0.0676 | 0.0598 | 0.0792 | 0.0807 | 0.0692 | 0.103 | 
R10Y | 0.0624 | 0.0577 | 0.0574 | 0.0683 | 0.0507 | 0.05 | 0.0824 | 0.0552 |  | 0.0558 | 0.0592 | 0.062 | 0.0784 |  | 0.0639 | 0.06 | 0.0701 | 0.0763 | 0.0671
R10T | 0.064 | 0.0601 | 0.0664 | 0.0682 |  | 0.0456 |  | 0.0727 |  | 0.06 | 0.0531 | 0.0695 | 0.0739 |  |  | 0.0694 | 0.0589 |  | 
P40V | 0.0635 | 0.0719 | 0.0363 | 0.0177 | 0.0549 |  | 0.0662 | 0.0556 | 0.0474 |  | 0.0588 | 0.051 | 0.08 |  |  | 0.0382 | 0.0562 |  | 0.0517
I42K | 0.0358 | 0.053 | 0.0531 | 0.0533 | 0.0329 |  | 0.0642 | 0.0562 | 0.0626 | 0.0541 | 0.0437 |  |  | 0.0527 | 0.0492 | 0.0662 | 0.0584 | 0.0528 | 0.0568
